Measured values: patent publication US20240409609A1, “REVERSIBLE LYSINE COVALENT MODIFIERS OF EGFR AND USES THEREOF” (Terremoto Biosciences, Inc., priority 2021, published 2024)

Experiments:
[1] = target: EGFR L858R/T790M/C797S triple-mutant protein (Homo sapiens (Human), UniProt P00533, C797S/L858R/T790M); test: Intact-protein mass spectrometry of EGFR protein incubated with compound; format: binding
[2] = target: EGFR L858R/T790M/C797S triple-mutant protein (residues 668-1210) (Homo sapiens (Human), UniProt P00533, C797S/L858R/T790M); test: Intact mass spectrometry of covalent binding with brigatinib competition; conditions: compound 1.5 uM, EGFR 0.8 uM, NaBH4 reduction; for covalent complex formation by intact mass spectrometry: absence of competitor; for covalent complex formation by intact mass spectrometry in presence of competitor: excess brigatinib 20 uM
Procedure: Identification of covalent binding by intact mass spectrometry for Table 5 compounds For intact mass spectrometry experiments EGFR L^858R/T790M/C797S triple-mutant protein (residues 668-1210, Biortus, 0.8 uM) was incubated with compound from Table 5 (1.5 uM).
Freshly dissolved NaBH4 in PBS was added to 5 mM final concentration for 30 min on ice to reduce imines into mass-spec stable amines. Reduction reactions were quenched by addition of 100% volume acetonitrile+1% TFA prior to injection on a Waters BioAccord LC-MS.

EGFR L858R/T790M/C797S [3] = target: T1, EGFR L858R/T790M/C797S (Homo sapiens (Human), UniProt P00533, C797S/L858R/T790M); test: EGFR jump dilution study; format: biochemical; conditions: for off-rate kinetics after jump dilution: 100-fold dilution, 1 mM ATP, up to 10 hrs
Procedure: (§1) Enzyme:inhibitor complexes were pre-formed at EGFR 100Y^1 final reaction concentration by incubating enzyme with an inhibitor at the greater concentration of either 10Y^1 inhibitor IC50, or 1:1.2 stoichiometry with enzyme.
(§2) After incubating enzyme:inhibitor complexes on ice for 30 min, reactions were diluted in two steps 100-fold into reaction buffer supplemented with 1 mM ATP, and 20 uM AssayQuant substrate (AQT0734), with final reaction volumes of 20 μL in a 384 well reaction plate. Wells were read immediately and at timepoints post-dilution for up to 10 hrs in a PerkinElmer Ensight plate reader, according to the AssayQuant manufacturer's instructions.
(§3) Data processing: Raw fluorescence signal was first background corrected by subtracting the fluorescence intensity of wells containing only the AssayQuant substrate, and no enzyme. Enzyme activity was normalized relative DMSO controls for each enzyme at each timepoint. In this way, DMSO-treated wells appear as a constant normalized activity=1 throughout the assay.
(§4) The X-axis of each of the three graphs represents the time after dilution that the enzyme activity was measured, with t=0 representing the time of jump dilution. The Y-axis of each graph provides the enzymatic activity at each time point. Enzymatic activity is normalized to the DMSO-treated control samples (i.e., the same enzyme variant treated with DMSO instead of compound). As such, a DMSO-normalized value of 1.0 represents full enzymatic activity (i.e., equivalent to the DMSO-treated control), while a value below 1.0 represents reduced activity relative to control (i.e., some degree of enzyme inhibition at the time measured). The data points over time (e.g., from 0 to 600 minutes post-dilution) are therefore indicative of the off-rate for the compound. […] Thus, the jump-dilution data provided a qualitative estimate of the off-rate kinetics for each compound against the panel of EGFR variants. Experiments were run in duplicate, resulting in two different data sets for each graph.

EGFR del19/T790M/C797S = EGFR del19/T790M/C797S (Homo sapiens (Human), UniProt P00533, C797S/DEL746-750/T790M); test: EGFR jump dilution study; format: biochemical; conditions: 100-fold dilution, 1 mM ATP, up to 10 hrs
Procedure: as §1, §2, §3, §4

[4] = target: EGFR (d746-750) T790M C797S (Homo sapiens (Human), UniProt P00533, C797S/DEL746-750/T790M); test: EGFR biochemical assay (AssayQuant chelation-enhanced fluorescence); conditions: read-out: AssayQuant EGFR del19/TM/CS IC50; 30 min preincubation, reaction time 150 min
EGFR L858R/T790M/C797S [5] = target: T1, EGFR L858R/T790M/C797S; test: as above; conditions: read-out: AssayQuant EGFR LR/TM/CS IC50; 30 min preincubation, reaction time 150 min
[6] = target: EGFR L858R/T790M/C797S protein (residues 668-1210) (Homo sapiens (Human), UniProt P00533, C797S/L858R/T790M); test: Intact mass spectrometry of covalent binding with BI-4020 competition; conditions: compound 4.4 uM, EGFR 2.2 uM, NaBH4 reduction, with and without BI-4020 30 uM
Procedure: Freshly dissolved NaBH4 in PBS was added to 5 mM final concentration for 5 min at room temperature to reduce imines to mass-spec stable amines. Reduction reactions were quenched by addition of 100% volume acetonitrile+1% TFA prior to injection on a Waters BioAccord L^C-MS.

[7] = target: EGFR T790M C797S L858R in Ba/F3 cells (Homo sapiens (Human), UniProt P00533, C797S/L858R/T790M); test: Ba/F3 pEGFR assay (AlphaLISA p-EGFR Tyr1068); format: cell-based; conditions: 2 hrs treatment
Procedure: (§5) Cellular activity was determined using the Ba/F3 system for studying oncogenic mutant kinases (Warmuth 2007). […] Transduced cells were maintained in RPMI 1640 with 10% FBS. EGFR WT transduced cells were grown in media supplemented with EGF. To assay cellular activity of inhibitors, cells were treated with inhibitor from 1000X DMSO stock dilutions and incubated for 2 hrs at 37° C. 5% CO2. Subsequently, p-EGFR (Tyr1068) was quantified using a commercial sandwich immunoassay (PerkinElmer AlphaLISA SureFire assay; ALSU-PEGFR) according to the manufacturer's instructions. […] Curr Opin Oncol 19, 55-60 (2007), which is incorporated herein in its entirety.

[8] = target: EGFR del746-750 T790M C797S in Ba/F3 cells (Homo sapiens (Human), UniProt P00533, C797S/DEL746-750/T790M); test: Ba/F3 pEGFR assay (AlphaLISA p-EGFR Tyr1068); format: cell-based; conditions: 2 hrs treatment; read-out: pEGFR Ba/F3 del19/T790M/C797S IC50
Procedure: as §5

Structure (SMILES)	covalent complex formation (intact-protein mass spectra) [1]	off-rate kinetics after jump dilution (EGFR L858R/T790M/C797S [3])	DMSO-normalized enzyme activity (EGFR L858R/T790M/C797S [3]; 10 hours (600 minutes) post-dilution)	IC50 [4]	IC50 (EGFR L858R/T790M/C797S [5])	IC50 [7]	IC50 [8]	covalent complex formation by intact mass spectrometry [2]	off-rate kinetics after jump dilution (EGFR del19/T790M/C797S)	covalent complex formation by intact mass spectrometry in presence of competitor [2]	covalent complex formation by intact mass spectrometry [6]
COc1cc(N2CCC(N3CCN(C)CC3)CC2)ccc1Nc1ncc(-c2ccc(O)c(C=O)c2)c(Nc2ccccc2)n1 [Compound 3]	–	slow-off kinetics	–	0.158 µM	0.0769 µM	–	–	a significant amount of covalent complex was observed	slow-off kinetics	essentially no covalent complex formation	covalent complex formed between the protein and Compound 3
COc1cc(N2CCC(N3CCN(C)CC3)CC2)ccc1Nc1ncc(-c2cccc(C=O)c2O)c(Nc2ccccc2)n1 [Compound 5]	–	–	–	0.0188 µM	0.00809 µM	> 10 µM	2.02 µM	only peaks corresponding to unmodified protein were observed	–	only peaks corresponding to unmodified protein were observed	–
COc1cc(N2CCC(N3CCN(C)CC3)CC2)ccc1Nc1ncc(Cl)c(Nc2ccccc2-c2cccc(C=O)c2O)n1 [Compound 6]	–	rapid reversion to a DMSO-normalized enzyme activity value of nearly 1.0	–	0.364 µM	0.164 µM	–	–	presence of covalent complex	rapid reversion to a DMSO-normalized enzyme activity value of nearly 1.0	–	–
COc1cc(N(C)CCN(C)C)c(NC(C)=O)cc1Nc1nccc(-c2cn(Cc3cccc(C=O)c3O)c3ccccc23)n1 [Compound 7]	–	slow-off kinetics	–	–	–	–	–	presence of covalent complex	rapid reversion to a DMSO-normalized enzyme value of roughly 1.0	No covalent complex formation is observed	some covalent complex was formed
COc1cc(N(C)CCN(C)C)ccc1Nc1ncc(-c2ccc(O)c(C=O)c2)c(-c2cn(C)c3ccccc23)n1 [Compound 8]	–	–	–	0.252 µM	0.602 µM	> 10 µM	> 10 µM	presence of covalent complex	–	No covalent complex formation was observed	–

More lines, main results first:

covalent complex formation (intact-protein mass spectra) [1]	off-rate kinetics after jump dilution (EGFR L858R/T790M/C797S [3])	DMSO-normalized enzyme activity (EGFR L858R/T790M/C797S [3]; 10 hours (600 minutes) post-dilution)	IC50 [4]	IC50 (EGFR L858R/T790M/C797S [5])	IC50 [7]	IC50 [8]	Structure (SMILES)	covalent complex formation by intact mass spectrometry [2]	off-rate kinetics after jump dilution (EGFR del19/T790M/C797S)	covalent complex formation by intact mass spectrometry in presence of competitor [2]	covalent complex formation by intact mass spectrometry [6]
covalent complex formation	slow-off kinetics	0.5	–	–	–	–	C#CCNC(=O)c1cc(Nc2cc(C3CC3)[nH]n2)nc(N2CCN(Cc3ccc(C=O)c(O)c3)CC2)n1 [Compound 1]	significant level of covalent complex formation	did not exhibit slow-off kinetics	–	–
covalent complex formation	–	–	–	–	–	–	C#CCNC(=O)c1cc(Nc2cc(C3CC3)[nH]n2)nc(N2CCN(Cc3ccc(O)c(C=O)c3)CC2)n1 [Compound 2]	significant level of covalent complex formation	–	–	–
–	–	–	0.083 µM	0.0488 µM	> 10 µM	8.34 µM	COc1cc(N2CCC(N3CCN(C)CC3)CC2)ccc1Nc1ncc(-c2ccc(C=O)c(O)c2)c(Nc2ccccc2)n1 [Compound 4]	only peaks corresponding to unmodified protein were observed	–	only peaks corresponding to unmodified protein were observed	–
